The chains are these.
T1: RBFOX1 RRM RbFoxmut (Fox-RRM*) (Homo sapiens, UniProt Q9NWB1 109-208, R118D;E147R;N151S;E152T)
T1 sequence: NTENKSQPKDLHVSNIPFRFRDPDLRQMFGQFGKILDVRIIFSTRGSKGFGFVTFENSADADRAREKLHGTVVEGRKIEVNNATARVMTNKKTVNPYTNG

B1: UAGAGUU (DNA:RNA)
RNA: GGGAGACCGGAAUUCAGAUUGUCCUAGAGUUUUAAAUCCCGUCGUAGCCACCA
DNA 1: CAATCTGAATTCCGGTCTCCC
DNA 2: TGGTGGCTACGACGGGATT
B2: ACCGAUA (DNA:RNA)
RNA: B1 RNA with U25A, A26C, G27C, A28G, G29A, U31A
DNA 1: CAATCTGAATTCCGGTCTCCC
DNA 2: TGGTGGCTACGACGGGATT
B3: AGCUGCU (DNA:RNA)
RNA: B1 RNA with U25A, A26G, G27C, A28U, U30C
DNA 1: CAATCTGAATTCCGGTCTCCC
DNA 2: TGGTGGCTACGACGGGATT
B4: AUCAAUA (DNA:RNA)
RNA: B1 RNA with U25A, A26U, G27C, G29A, U31A
DNA 1: CAATCTGAATTCCGGTCTCCC
DNA 2: TGGTGGCTACGACGGGATT
B5: ACCAUGA (DNA:RNA)
RNA: B1 RNA with U25A, A26C, G27C, G29U, U30G, U31A
DNA 1: CAATCTGAATTCCGGTCTCCC
DNA 2: TGGTGGCTACGACGGGATT
B6: UCGGCUG (DNA:RNA)
RNA: B1 RNA with A26C, A28G, G29C, U31G
DNA 1: CAATCTGAATTCCGGTCTCCC
DNA 2: TGGTGGCTACGACGGGATT
B7: ACGGGCC (DNA:RNA)
RNA: B1 RNA with U25A, A26C, A28G, U30C, U31C
DNA 1: CAATCTGAATTCCGGTCTCCC
DNA 2: TGGTGGCTACGACGGGATT
B8: AAUACCG (DNA:RNA)
RNA: B1 RNA with U25A, G27U, G29C, U30C, U31G
DNA 1: CAATCTGAATTCCGGTCTCCC
DNA 2: TGGTGGCTACGACGGGATT
B9: CCACAGU (DNA:RNA)
RNA: B1 RNA with U25C, A26C, G27A, A28C, G29A, U30G
DNA 1: CAATCTGAATTCCGGTCTCCC
DNA 2: TGGTGGCTACGACGGGATT

Positions count from the first letter of the chain named. The list shows a part of the results.

In this assay the target is T1, RBFOX1 RRM RbFoxmut (Fox-RRM*). The assay is described as follows: EMSA; HiTS-Eq, 1 nM pool, 10 min; buffer printed only for the single-RNA assays: 10 mM Tris pH 7.5, 150 mM NaCl, 3.4 mM EDTA, 0.001% NP-40, 30 C. Particulars: tags: His6 N-terminal (pET28a); label: 5' 32P. Summed up:
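These values rest on relative association constants, computed from read-count changes of each RNA species versus the control reaction and normalised to the cognate motif. Reads came from free RNA recovered by 8% native PAGE after purified RbFox RRM (wild type or mutant) at increasing concentrations was equilibrated for 10 min in 50 µL with 1 nM of a 5′-radiolabelled pool with 7 randomized nucleotides and DNA-annealed flanks.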
A general note: In EMSA bound probe runs differently from free probe, usually more slowly.
Regarding B1, the binding signal is 0.109 KA relative to UGCAUGU.
The same measure for B2: 0.0715 KA relative to UGCAUGU; for B3: 0.107 KA relative to UGCAUGU; for B4: 0.0978 KA relative to UGCAUGU.
With B5, the binding signal is 0.076 KA relative to UGCAUGU.
Turning to B6, the binding signal is 0.226 KA relative to UGCAUGU.
Take B7: the binding signal is 0.192 KA relative to UGCAUGU.
The result for B8 reads 0.0781 KA relative to UGCAUGU; that for B9, 0.0857 KA relative to UGCAUGU.

These data come from publication PMC9911399, “Two distinct binding modes provide the RNA-binding protein RbFox with extraordinary sequence specificity”.
